Patent US10299477B2 (priority 2015, dated 2019)

What was measured:
Format in all cases: in vivo
[1] = test system: Botrytis cinerea; assay: Test Example B: Gray mold on tomato; conditions: for Test B (control value class, gray mold on tomato): in vivo; for Test B control value (gray mold on tomato): preventive, control value class
Description: [Test Example B] Gray Mold on Tomato
Seeds of a test plant (tomato variety: Oogata Fukuju) were planted followed by cultivating until three to five first leaves (true leaves) appeared.

[2] = test system: Alternaia brassicicola; assay: Test Example C: Alternaria sooty spot on cabbage; conditions: for Test C (control value class, Alternaria sooty spot on cabbage): in vivo; for Test C control value (Alternaria sooty spot on cabbage): preventive, control value class
Description: [Test Example C] Alternaria Sooty Spot on Cabbage
Seeds of a test plant (cabbage variety: Shikidori) were planted followed by cultivating until the cotyledons extended.

[3] = test system: Blumeria graminis f sp. hordei; assay: Test Example D: Powdery mildew on barley; conditions: for Test D (control value class, powdery mildew on barley): in vivo; for Test D control value (powdery mildew on barley): preventive, control value class
Description: [Test Example D] Powdery Mildew on Barley
After the sprayed dilutions were dried, conidia of Blumeria graminis f sp. hordei were inoculated to the plants by shaking off.

[4] = test system: Puccinia recondita; assay: Test Example E: Brown rust on wheat; conditions: for Test E (control value class, brown rust on wheat): in vivo; for Test E control value (brown rust on wheat): preventive, control value class
Description: [Test Example E] Brown Rust on Wheat

[5] = test system: Plasmopara viticola; assay: Test Example G: Downy mildew on vine; conditions: for Test G (control value class): 250 ppm spray; for Test G (control value class, downy mildew on vine): 250 ppm, sprayed 2.5 ml/pot before inoculation; for Test G control value (downy mildew on vine): 250 ppm spray (2.5 ml/pot), preventive, control value class
Description: [Test Example G] Downy Mildew on Vine
Seeds of a test plant (grape variety: Neomuscat) were planted followed by cultivating until three to four first leaves appeared. […] After the sprayed dilutions were dried, a zoosporangia suspension (1-2×10^4 zoosporangia/ml) of Plasmopara viticola was inoculated to the plants by spraying.

[6] = gray mold on tomato, Botrytis cinerea, 250 ppm spray
[7] = Alternaria sooty spot on cabbage, 250 ppm spray
[8] = powdery mildew on barley, 250 ppm spray
[9] = brown rust on wheat, Puccinia recondita, 250 ppm spray
[10] = downy mildew on vine, Plasmopara viticola, 7-10 days after inoculation
[11] = evaluated 7-10 days after inoculation
[12] = Gray mold on tomato, control value=100{1-(n/3)}
[13] = Alternaria sooty spot on cabbage, control value=100{1-(n/3)}
[14] = Powdery mildew on barley, control value=100{1-(n/3)}
[15] = Brown rust on wheat, control value=100{1-(n/3)}
[16] = Downy mildew on vine, 2.5 ml/pot, evaluated 7-10 days after inoculation

CCn1c(-c2c(F)cccc2F)c(-c2cccc(F)c2F)cc(C)c1=O [Compound 534]
Test B (control value class) [1, 6]: H (H shows more than 50% of control values) | Test C (control value class) [2, 7]: H (H shows more than 50% of control values) | Test D (control value class) [3, 8]: H (H shows more than 50% of control values) | Test E (control value class) [4, 9]: H (H shows more than 50% of control values) | Test G (control value class) [5, 10]: L (L shows 50% or less of control values)

CCn1c(-c2c(F)cc(F)cc2F)c(-c2cccc(F)c2F)ccc1=O [Compound 558]
Test B (control value class) [1, 6]: H (H shows more than 50% of control values) | Test C (control value class) [2, 7]: H (H shows more than 50% of control values) | Test D (control value class) [3, 8]: H (H shows more than 50% of control values) | Test E (control value class) [4, 9]: H (H shows more than 50% of control values) | Test G (control value class) [5, 10]: H (H shows more than 50% of control values)

CCn1c(-c2c(F)cccc2F)c(-c2ccccc2C)cc(Br)c1=O [Compound 162]
Test B control value ([1]; Gray mold on tomato): H (H shows more than 50% of control values) | Test C control value ([2]; Alternaria sooty spot on cabbage): H (H shows more than 50% of control values) | Test D control value ([3]; Powdery mildew on barley): H (H shows more than 50% of control values) | Test E control value ([4]; Brown rust on wheat): L (L shows 50% or less of control values) | Test G control value ([5]; Downy mildew on vine, 250 ppm sprayed before inoculation, 7-10 days after inoculation): L (L shows 50% or less of control values)

COc1cc(F)c(-c2c(-c3cc(OC)ccc3Cl)ccc(=O)n2C)c(F)c1 [Compound 721]
Test B (control value class, gray mold on tomato) [1]: H (H shows more than 50% of control values) | Test C (control value class, Alternaria sooty spot on cabbage) [2]: H (H shows more than 50% of control values) | Test D (control value class, powdery mildew on barley) [3]: H (H shows more than 50% of control values) | Test E (control value class, brown rust on wheat) [4]: H (H shows more than 50% of control values) | Test G (control value class, downy mildew on vine) [5, 11]: L (L shows 50% or less of control values)

CCN1C(=O)CCC(c2cccc(C(F)(F)F)c2)=C1c1c(F)cccc1F [Compound 283]
Test B control value (gray mold on tomato) ([1]; 250 ppm spray): H (H shows more than 50% of control values) | Test C control value (Alternaria sooty spot on cabbage) ([2]; 250 ppm spray): L (L shows 50% or less of control values) | Test D control value (powdery mildew on barley) ([3]; 250 ppm spray): H (H shows more than 50% of control values) | Test E control value (brown rust on wheat) ([4]; 250 ppm spray): L (L shows 50% or less of control values) | Test G control value (downy mildew on vine) ([5]; 7-10 days after inoculation): L (L shows 50% or less of control values)

CCn1c(-c2c(F)cc(OC)cc2F)c(-c2ccccc2)cc(Cl)c1=O [Compound 773]
Test B (control value class) [1, 12]: H (H shows more than 50% of control values) | Test C (control value class) [2, 13]: H (H shows more than 50% of control values) | Test D (control value class) [3, 14]: H (H shows more than 50% of control values) | Test E (control value class) [4, 15]: H (H shows more than 50% of control values) | Test G (control value class) [5, 16]: H (H shows more than 50% of control values)

CCn1c(-c2c(F)cc(F)cc2F)c(-c2ccccc2Cl)ccc1=O [Compound 715]
Test B (control value class, gray mold on tomato) [1]: H (H shows more than 50% of control values) | Test C (control value class, Alternaria sooty spot on cabbage) [2]: H (H shows more than 50% of control values) | Test D (control value class, powdery mildew on barley) [3]: H (H shows more than 50% of control values) | Test E (control value class, brown rust on wheat) [4]: H (H shows more than 50% of control values) | Test G (control value class, downy mildew on vine) [5, 11]: H (H shows more than 50% of control values)

COc1cc(OC)cc(-c2ccc(=O)n(C)c2-c2c(F)cc(Br)cc2F)c1 [Compound 203]
Test B control value (gray mold on tomato) ([1]; 250 ppm spray): H (H shows more than 50% of control values) | Test C control value (Alternaria sooty spot on cabbage) ([2]; 250 ppm spray): H (H shows more than 50% of control values) | Test D control value (powdery mildew on barley) ([3]; 250 ppm spray): L (L shows 50% or less of control values) | Test E control value (brown rust on wheat) ([4]; 250 ppm spray): H (H shows more than 50% of control values) | Test G control value (downy mildew on vine) ([5]; 7-10 days after inoculation): L (L shows 50% or less of control values)

CCn1c(-c2c(F)cccc2F)c(-c2cccc(Br)c2)cc(Cl)c1=O [Compound 328]
Test B control value (gray mold on tomato) ([1]; 250 ppm spray): L (L shows 50% or less of control values) | Test C control value (Alternaria sooty spot on cabbage) ([2]; 250 ppm spray): L (L shows 50% or less of control values) | Test D control value (powdery mildew on barley) ([3]; 250 ppm spray): L (L shows 50% or less of control values) | Test E control value (brown rust on wheat) ([4]; 250 ppm spray): L (L shows 50% or less of control values) | Test G control value (downy mildew on vine) ([5]; 7-10 days after inoculation): L (L shows 50% or less of control values)

C#CCOc1ccc(Cl)c(-c2ccc(=O)n(CC)c2-c2c(F)cccc2F)c1 [Compound 244]
Test B control value (gray mold on tomato) ([1]; 250 ppm spray): H (H shows more than 50% of control values) | Test C control value (Alternaria sooty spot on cabbage) ([2]; 250 ppm spray): H (H shows more than 50% of control values) | Test D control value (powdery mildew on barley) ([3]; 250 ppm spray): H (H shows more than 50% of control values) | Test E control value (brown rust on wheat) ([4]; 250 ppm spray): H (H shows more than 50% of control values) | Test G control value (downy mildew on vine) ([5]; 7-10 days after inoculation): L (L shows 50% or less of control values)

Cc1cc(F)c(-c2c(-c3cc(F)ccc3Cl)cc(Cl)c(=O)n2C)c(F)c1 [Compound 691]
Test B (control value class, gray mold on tomato) [1]: H (H shows more than 50% of control values) | Test C (control value class, Alternaria sooty spot on cabbage) [2]: H (H shows more than 50% of control values) | Test D (control value class, powdery mildew on barley) [3]: H (H shows more than 50% of control values) | Test E (control value class, brown rust on wheat) [4]: H (H shows more than 50% of control values) | Test G (control value class, downy mildew on vine) [5, 11]: H (H shows more than 50% of control values)

COc1ccc(-c2cc(Br)c(=O)n(C)c2-c2c(F)cc(F)cc2F)c(Cl)c1 [Compound 767]
Test B (control value class) [1, 12]: H (H shows more than 50% of control values) | Test C (control value class) [2, 13]: H (H shows more than 50% of control values) | Test D (control value class) [3, 14]: L (L shows 50% or less of control values) | Test E (control value class) [4, 15]: H (H shows more than 50% of control values) | Test G (control value class) [5, 16]: L (L shows 50% or less of control values)

Cn1c(-c2c(F)cccc2F)c(-c2cc(OCC(F)F)ccc2Cl)ccc1=O [Compound 278]
Test B control value (gray mold on tomato) ([1]; 250 ppm spray): H (H shows more than 50% of control values) | Test C control value (Alternaria sooty spot on cabbage) ([2]; 250 ppm spray): H (H shows more than 50% of control values) | Test D control value (powdery mildew on barley) ([3]; 250 ppm spray): H (H shows more than 50% of control values) | Test E control value (brown rust on wheat) ([4]; 250 ppm spray): H (H shows more than 50% of control values) | Test G control value (downy mildew on vine) ([5]; 7-10 days after inoculation): H (H shows more than 50% of control values)

O=c1ccc(-c2ccc(Cl)cc2Cl)c(-c2c(F)cccc2F)n1CC(F)F [Compound 345]
Test B control value (gray mold on tomato) ([1]; 250 ppm spray): H (H shows more than 50% of control values) | Test C control value (Alternaria sooty spot on cabbage) ([2]; 250 ppm spray): H (H shows more than 50% of control values) | Test D control value (powdery mildew on barley) ([3]; 250 ppm spray): H (H shows more than 50% of control values) | Test E control value (brown rust on wheat) ([4]; 250 ppm spray): H (H shows more than 50% of control values) | Test G control value (downy mildew on vine) ([5]; 7-10 days after inoculation): H (H shows more than 50% of control values)

COc1cc(F)c(-c2c(-c3ccccc3F)cc(Cl)c(=O)n2C)c(F)c1 [Compound 570]
Test B (control value class, gray mold on tomato) [1]: H (H shows more than 50% of control values) | Test C (control value class, Alternaria sooty spot on cabbage) [2]: H (H shows more than 50% of control values) | Test D (control value class, powdery mildew on barley) [3]: H (H shows more than 50% of control values) | Test E (control value class, brown rust on wheat) [4]: H (H shows more than 50% of control values) | Test G (control value class, downy mildew on vine) [5, 11]: H (H shows more than 50% of control values)

COc1cc(OC)c(Cl)c(-c2ccc(=O)n(C)c2-c2c(F)cccc2Br)c1 [Compound 185]
Test B control value (gray mold on tomato) ([1]; 250 ppm spray): H (H shows more than 50% of control values) | Test C control value (Alternaria sooty spot on cabbage) ([2]; 250 ppm spray): H (H shows more than 50% of control values) | Test D control value (powdery mildew on barley) ([3]; 250 ppm spray): H (H shows more than 50% of control values) | Test E control value (brown rust on wheat) ([4]; 250 ppm spray): H (H shows more than 50% of control values) | Test G control value (downy mildew on vine) ([5]; 7-10 days after inoculation): L (L shows 50% or less of control values)
